In brackets after ≈: the same amount, converted by molar mass. Where two headings read alike, the source gives them in different places. Marks after values point to notes of the source that are not given here.
What was measured:
[1] = system: Enterobacter aerogenes B-679; test: Sensitivity of strains: suppression of growth; type: cell-based; details: Compound (1) 1.0%; antibiotics disc method
Alkaligenes sp. B-667 = test: Sensitivity of strains: suppression of growth; type: cell-based; details: Compound (1) 1.0%; antibiotics disc method
[2] = system: Klebsiella pneumoniae M-248; test: Sensitivity of strains: suppression of growth; type: cell-based; details: Compound (1) 1.0%; antibiotics disc method
[3] = system: Staphylococcus aureus M-12159; test: Sensitivity of strains: suppression of growth; type: cell-based; details: Compound (1) 1.0%; antibiotics disc method
[4] = system: Staphylococci epidermidis D-513; test: Sensitivity of strains: suppression of growth; type: cell-based; details: Compound (1) 1.0%; antibiotics disc method
[5] = system: Enterococcus faecalis ATCC 29212; test: NCCLS broth microdilution MIC/MBC; type: cell-based; details: for MIC: Enterococcus faecalis, ATCC29212
Streptococcus pyogenes = test: NCCLS broth microdilution MIC/MBC; type: cell-based; details: for MIC: Streptococcus pyogenes
[6] = system: Moraxella catarrhalis RMIT; test: NCCLS broth microdilution MIC/MBC; type: cell-based; details: for MIC: Moraxella catarrhalis
[7] = system: Neisseria gonorrhoeae WHO Strain VII; test: NCCLS broth microdilution MIC/MBC; type: cell-based
Enterobacter aerogenes = test: NCCLS broth microdilution MIC/MBC; type: cell-based; details: for MIC: Klebsiella aerogenes
Rhizopus stolonifer = test: NCCLS broth macro-dilution MIC/MFC (RPMI); type: cell-based; details: Table 10, 7 day, 30° C.
Klebsiella oxytoca = test: microbe, parasite or virus in culture; type: cell-based; details: Klebsiella oxytoca; after 12 weeks continuous exposure; read-out: Standard MIC Final
A. calcoaceticus = test: Antibacterial activity in the presence of blood, macrodilution; type: cell-based; details: 5% blood
C. tropicalis RMIT 181 = test: M38-P microdilution MIC/MFC; type: cell-based; details: 35° C.
A. Flavus = test: M38-P microdilution MIC/MFC; type: cell-based; details: Table 16, 48 h, 35° C.
Rhizomucor pusillus = test: M38-P microdilution MIC/MFC; type: cell-based; details: Table 16, 48 h, 35° C.
Fonsecaea pedrosoi = test: M38-P microdilution MIC/MFC; type: cell-based
Candida albicans = test: Effect of solvent on MIC, microdilution; type: cell-based
Description: (§1) The effect of formulation in DMSO and ethanol on the MIC of Compound (1) was compared for Candida albicans, Salmonella Typhimurium and Escherichia coli using both the macrodilution and microdilution tests.
(§2) Stock solutions in ethanol were allowed to stand for 48 h before use to improve solubility. Compound (1) is not as soluble in ethanol as in DMSO. The concentration of ethanol and DMSO was kept constant at 2% and compared to a decreasing concentration of solvent on normal dilution of the stock solution. There was no difference between the two test methods. There was no difference in MIC between constant and decreasing levels of DMSO.

Escherichia coli = test: Effect of solvent on MIC, microdilution; type: cell-based
Description: as §1, §2

Salmonella typhimurium = test: Effect of solvent on MIC, microdilution; type: cell-based
Description: as §1, §2

[8] = system: Plasmodium falciparum 3D7
[9] = system: β-haemolytic streptococcus B-624; test: Agar diffusion assay
Alkaligenes sp. B-689 = test: Agar diffusion assay
[10] = system: Enterobacter agglomerans B-679; test: Agar diffusion assay
[11] = system: Trichophyton interdigitale; test: Impregnated agar serial double dilutions; details: meat peptone agar
[12] = Table 17, 2 or 3 replicates, RMIT strain
[13] = Table 19, 24 H, 35° C., O2-MICRO METHOD

Structure (SMILES): C/C(=C\c1ccc2c(c1)OCO2)[N+](=O)[O-] [Compound (1)]
- Suppression of Growth (+/−) [1]: +
- Suppression of Growth (+/−) (Alkaligenes sp. B-667): +
- Suppression of Growth (+/−) [2]: +
- Suppression of Growth (+/−) [3]: +
- Suppression of Growth (+/−) [4]: +
- MIC ([5]; Table 9, 35° C., 24 hours): 32 µg/mL (≈ 154 µM)
- MIC ([5]; Table 17, 2 or 3 replicates): 32 µg/mL (≈ 154 µM)
- MMC ([5]; Table 9, 35° C., 24 hours): 32 µg/mL
- MMC ([5]; Table 17, 2 or 3 replicates): 32 µg/mL
- MIC (Streptococcus pyogenes; Table 9, 35° C., 24 hours): 16.8 µg/mL (≈ 81.1 µM)
- MIC (Streptococcus pyogenes; [12]): 16 µg/mL (≈ 77.2 µM)
- MMC (Streptococcus pyogenes; Table 9, 35° C., 24 hours): 16.8 µg/mL
- MMC (Streptococcus pyogenes; [12]): 16 µg/mL
- MIC ([6]; Table 9, 35° C., 24 hours): 32 µg/mL (≈ 154 µM)
- MIC ([6]; Table 17, 2 or 3 replicates): 32 µg/mL (≈ 154 µM)
- MMC ([6]; Table 9, 35° C., 24 hours): 32 µg/mL
- MMC ([6]; Table 17, 2 or 3 replicates): 32 µg/mL
- MIC ([7]; Neisseria gonorrhoeae, Table 9, 35° C., 24 hours, read-out: MIC): 2 µg/mL (≈ 9.65 µM)
- MIC ([7]; Neisseria gonorrhoeae, Table 17, 2 or 3 replicates, read-out: MIC): 2 µg/mL (≈ 9.65 µM)
- MMC ([7]; Table 9, 35° C., 24 hours): 2 µg/mL
- MMC ([7]; Table 17, 2 or 3 replicates): 2 µg/mL
- MIC [7, 13]: 2 µg/mL (≈ 9.65 µM)
- MMC [7, 13]: 2 µg/mL
- MIC (Enterobacter aerogenes; Table 9, 35° C., 24 hours): 512 µg/mL (≈ 2470 µM)
- MIC (Enterobacter aerogenes; Table 17, 2 or 3 replicates): 512 µg/mL (≈ 2470 µM)
- MMC (Enterobacter aerogenes; Table 9, 35° C., 24 hours): 512 µg/mL
- MMC (Enterobacter aerogenes; Table 17, 2 or 3 replicates): 512 µg/mL
- MIC (Rhizopus stolonifer; Rhizopus stolonifer, 168 h): 4 µg/mL (≈ 19.3 µM)
- MMC (Rhizopus stolonifer): 16 µg/mL
- MIC (Klebsiella oxytoca): 256 µg/mL (≈ 1240 µM)
- MMC (A. calcoaceticus): 256 µg/mL
- MIC (A. calcoaceticus; Acinetobacter calcoaceticus, read-out: MIC): 64 µg/mL
- MIC (C. tropicalis RMIT 181; Candida tropicalis, RMIT181, Table 16, 24 h): 4 µg/mL (≈ 19.3 µM)
- MMC (C. tropicalis RMIT 181; Table 16, 24 h): 4 µg/mL
- MIC (A. Flavus; Aspergillus flavus): 16 µg/mL (≈ 77.2 µM)
- MMC (A. Flavus): 32 µg/mL
- MIC (Rhizomucor pusillus; Rhizomucor pusillus): 4 µg/mL (≈ 19.3 µM)
- MMC (Rhizomucor pusillus): 8 µg/mL
- MIC (Fonsecaea pedrosoi; Fonsecaea pedrosoi): 2 µg/mL (≈ 9.65 µM)
- MMC (Fonsecaea pedrosoi; Table 16, M38-P, Dematiaceous fungi): 2 µg/mL
- MBC (Candida albicans; Candida albicans, DMSO, read-out: MBC): 16 µg/mL (≈ 77.2 µM)
- MIC (Candida albicans; Candida albicans, DMSO, read-out: MIC): 8 µg/mL (≈ 38.6 µM)
- MBC (Candida albicans; EtOH (2%)): 16 µg/mL (≈ 77.2 µM)
- MIC (Candida albicans; EtOH (2%)): 8 µg/mL (≈ 38.6 µM)
- MBC (Escherichia coli; DMSO): > 512 µg/mL
- MIC (Escherichia coli; DMSO): 512 µg/mL (≈ 2470 µM)
- MBC (Escherichia coli; EtOH (2%)): 256 µg/mL (≈ 1240 µM)
- MBC (Salmonella typhimurium; EtOH (2%)): >512 µg/mL
- MIC (Salmonella typhimurium; EtOH (2%)): 512 µg/mL (≈ 2470 µM)
- MBC (Salmonella typhimurium; Salmonella enterica, TYPHIMURIUM, DMSO, read-out: MBC): > 512 µg/mL
- MIC (Salmonella typhimurium; Salmonella enterica, TYPHIMURIUM, DMSO, read-out: MIC): 512 µg/mL (≈ 2470 µM)
- effect on red blood cell morphology [8]: no detectable adverse effect
- effect on parasite growth and replication ([8]; 5, 10 and 25 μg/mL, up to 72 hours of culture): concentration-dependent inhibitory effect
- Diameter of zone of Growth inhibition ([9]; Concentration in disc 0.1%): 31# mm
- Diameter of zone of Growth inhibition ([9]; Concentration in disc 1.0%): 32# mm
- Diameter of zone of Growth inhibition ([9]; Concentration in disc 2.0%): 31# mm
- Diameter of zone of Growth inhibition (Alkaligenes sp. B-689; Concentration in disc 0.1%): 36# mm
- Diameter of zone of Growth inhibition (Alkaligenes sp. B-689; Concentration in disc 1.0%): 38# mm
- Diameter of zone of Growth inhibition (Alkaligenes sp. B-689; Concentration in disc 2.0%): 40# mm
- Diameter of zone of Growth inhibition ([10]; Concentration in disc 0.1%): 25# mm
- Diameter of zone of Growth inhibition ([10]; Concentration in disc 1.0%): 30# mm
- Diameter of zone of Growth inhibition ([10]; Concentration in disc 2.0%): 33# mm
- Minimal % Compound (1) giving complete inhibition of test culture [11]: 0.25%
